About 14,000 (4.5%) of roughly 310,000 compounds showed an effect of 50% or more. Effects have a minus sign here. The list shows a part of the results.
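Further: peak tail current of the secondary pulse compared with the same well before compound.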

human ether-à-go-go-related gene (hERG) potassium channel, sequence (Q12809 whole entry, looked up): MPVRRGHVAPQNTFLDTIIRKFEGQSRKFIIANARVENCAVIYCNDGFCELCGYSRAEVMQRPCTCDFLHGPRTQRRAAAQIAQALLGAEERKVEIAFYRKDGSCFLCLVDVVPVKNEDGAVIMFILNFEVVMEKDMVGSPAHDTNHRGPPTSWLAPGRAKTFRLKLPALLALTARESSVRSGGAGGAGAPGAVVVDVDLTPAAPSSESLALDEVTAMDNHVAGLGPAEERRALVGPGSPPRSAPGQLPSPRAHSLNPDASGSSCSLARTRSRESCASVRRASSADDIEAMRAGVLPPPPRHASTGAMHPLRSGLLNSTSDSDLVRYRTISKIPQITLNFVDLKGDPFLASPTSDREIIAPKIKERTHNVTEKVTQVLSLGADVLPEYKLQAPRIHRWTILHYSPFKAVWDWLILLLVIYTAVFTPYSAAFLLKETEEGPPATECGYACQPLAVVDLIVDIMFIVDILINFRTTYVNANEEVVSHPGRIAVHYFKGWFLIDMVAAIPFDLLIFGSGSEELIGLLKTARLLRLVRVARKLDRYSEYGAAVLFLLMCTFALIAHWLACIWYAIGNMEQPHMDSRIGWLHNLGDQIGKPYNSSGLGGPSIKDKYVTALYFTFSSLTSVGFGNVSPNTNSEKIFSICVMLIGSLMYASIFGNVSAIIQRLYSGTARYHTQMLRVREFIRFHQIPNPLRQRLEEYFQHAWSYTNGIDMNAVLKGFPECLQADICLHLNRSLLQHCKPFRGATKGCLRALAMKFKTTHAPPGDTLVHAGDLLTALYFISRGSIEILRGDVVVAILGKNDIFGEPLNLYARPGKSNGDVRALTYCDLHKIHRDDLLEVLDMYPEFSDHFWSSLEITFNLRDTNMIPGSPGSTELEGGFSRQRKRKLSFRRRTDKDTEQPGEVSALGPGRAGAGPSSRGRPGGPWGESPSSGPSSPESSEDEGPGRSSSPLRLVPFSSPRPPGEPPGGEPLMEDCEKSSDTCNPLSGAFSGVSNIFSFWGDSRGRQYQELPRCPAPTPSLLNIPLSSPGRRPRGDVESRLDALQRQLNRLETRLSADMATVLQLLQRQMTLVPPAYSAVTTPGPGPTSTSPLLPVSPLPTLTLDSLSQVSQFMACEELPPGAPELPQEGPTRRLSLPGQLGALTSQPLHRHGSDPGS

The assay addresses human ether-à-go-go-related gene (hERG) potassium channel (human, UniProt Q12809). As to the kind of experiment: primary screen, population patch clamp on CHO cells stably expressing hERG.
In the case of `Cc1ccc(NC(=S)N/N=C2\CCCCC2C)cc1` (stereo not drawn), the “hERG current change (%, negative = inhibition) at 10uM” value is -10.4%.
For `CCNC(=S)N1CCN(CCN2C(=O)c3cccc4cccc(c34)C2=O)CC1`, the “hERG current change (%, negative = inhibition) at 10uM” value is on record as 0.247%.
With `CC(C)(C)OC(=O)N1CCC[C@H]1C(=O)NCc1ccc(Cl)cc1Cl`, the “hERG current change (%, negative = inhibition) at 10uM” value turned out to be 9.03%.
On to `CCOc1ccc(CN2CCNC(=O)C2CC(=O)NCCCn2ccnc2)cc1` (stereo not drawn), for which the “hERG current change (%, negative = inhibition) at 10uM” value was 19%.
On to `CN(C)c1nc(N)nc(CSc2nc3cc(Cl)ccc3o2)n1`, for which the “hERG current change (%, negative = inhibition) at 10uM” value worked out at 8.44%.
As for `O=C(c1ccc(Cl)c(S(=O)(=O)N2CCCCC2)c1)N1CCCCC1`, the “hERG current change (%, negative = inhibition) at 10uM” value is on record as -31.7%.
`Cc1nc2ccccc2c(=O)n1NC(=O)c1ccc(Cl)cc1`: the “hERG current change (%, negative = inhibition) at 10uM” value is recorded as -17.3%.
`CN(Cc1ccccc1)C(=O)CN1CCN(C(c2ccccc2)c2ccccc2)CC1`: the “hERG current change (%, negative = inhibition) at 10uM” value was -47.7%.
On to `CC(/C=N/n1c(-c2cc(C)[nH]n2)n[nH]c1=S)=C\c1ccco1`, for which the “hERG current change (%, negative = inhibition) at 10uM” value was found to be 15.8%.
Regarding `COCCNC(=O)C(C)N(c1ccc(Oc2ccccc2)cc1)S(C)(=O)=O` (stereo not drawn), the “hERG current change (%, negative = inhibition) at 10uM” value is on record as -8.8%.
For `CC(=O)Nc1cc(C(=O)N2CCCC2)ccc1S(=O)(=O)c1ccc(C)cc1`, the “hERG current change (%, negative = inhibition) at 10uM” value is given as 2.93%.
As to `COc1cccc(/C=N/NC(=O)CN(C2=NS(=O)(=O)c3ccccc32)c2ccccc2)c1`, the “hERG current change (%, negative = inhibition) at 10uM” value was found to be 0.919%.
In the case of `COCN(C#N)c1nc(N(C)C)nc(N(C)C)n1`, the “hERG current change (%, negative = inhibition) at 10uM” value came to 4.28%.
As to `CC12C(=O)N(CCC(=O)O)C(=O)C1C1C=CC2C1` (stereo not drawn), the “hERG current change (%, negative = inhibition) at 10uM” value is 10.3%.
Take `CCN(C(=O)COC(=O)c1cnc(C)cn1)C1CCS(=O)(=O)C1` (stereo not drawn): the “hERG current change (%, negative = inhibition) at 10uM” value is listed as -15.2%.
Under `O/N=C(/CCc1ccccc1)C1(O)CCCCC1` stands -0.675%.
With `CCC1CN(C(=O)N2CCC(C(=O)NCCc3ccccc3)CC2)c2ccccc2O1` (stereo not drawn), the “hERG current change (%, negative = inhibition) at 10uM” value was -19.5%.
As for `Cc1nn(-c2ccccc2)c2c1c(C)c(CCC(=O)N1CCOCC1)c(=O)n2C`, the “hERG current change (%, negative = inhibition) at 10uM” value is given as -40.3%.
Take `COc1cc(C(=O)NCC2CCCO2)cc(Br)c1OCc1ccccc1` (stereo not drawn): the “hERG current change (%, negative = inhibition) at 10uM” value is recorded as -32.3%.
For `COc1ccccc1OCCn1c(=O)oc2ccc(C)cc21`, the “hERG current change (%, negative = inhibition) at 10uM” value is -0.344%.
In the case of `Cc1ccc(CN2C(=O)CCC2(C)C(=O)NCc2cccnc2)cc1` (stereo not drawn), the “hERG current change (%, negative = inhibition) at 10uM” value is on record as -3.97%.
`C[N+]12CCC(CC1)C(OC(=O)C(O)(c1ccccc1)c1ccccc1)C2.[Br-]` (stereo not drawn): the “hERG current change (%, negative = inhibition) at 10uM” value was found to be 0.174%.
With `CCOCCCNC(=O)CN1C(=O)/C(=C/c2ccccc2C)Sc2ccccc21`, the “hERG current change (%, negative = inhibition) at 10uM” value is -8.45%.
For `O=S(=O)(NCc1ccccc1Cl)c1ccc(-n2cnnn2)cc1`, the “hERG current change (%, negative = inhibition) at 10uM” value is recorded as 21.2%.
As for `CCSc1ncc(Cl)c(C(=O)Nc2sc3c(c2C(=O)NCc2cccnc2)CCCC3)n1`, the figure is 10.6%; as for `CN(CC(=O)Nc1ccc(F)cc1)CC(=O)NC1CCCCC1`, 11%; as for `COc1ccc(C2C(C(=O)N3CCOCC3)=C(C)NC3=C2C(=O)CC(C)(C)C3)cc1O` (stereo not drawn), 5.59%.
For `CCCc1cc(=O)[nH]c(SCC(=O)Nc2ccc(Br)cc2)n1`, the “hERG current change (%, negative = inhibition) at 10uM” value worked out at 1.12%.
On to `CCNc1nc(Oc2ccc(C(=O)OC)cc2)nc(SC)n1`, for which the “hERG current change (%, negative = inhibition) at 10uM” value is 5.75%.
As for `O=C(CSc1nnc2ccc(-c3cccnc3)nn12)Nc1ccccc1F`, the “hERG current change (%, negative = inhibition) at 10uM” value is -39.2%.
For the molecule `CCOCCn1ccc2c(OCC(=O)Nc3ccccc3OC)cccc2c1=O`, the “hERG current change (%, negative = inhibition) at 10uM” value was -18%.
With `CC1CCN(c2c(NCc3ccc(C(=O)N(C)C4CCCCC4)cc3)c(=O)c2=O)CC1`, the “hERG current change (%, negative = inhibition) at 10uM” value came to 4.79%.
Regarding `COC(C[C@@H]1O[C@@H]1C(=O)[C@@H](C)OCc1ccccc1)OC`, the “hERG current change (%, negative = inhibition) at 10uM” value was found to be 22.5%.
`OCC[C@@H]1C[C@@H](O)[C@H](O)[C@]2(OCCc3ccccc32)O1`: the “hERG current change (%, negative = inhibition) at 10uM” value came out at 12%.
Under `CCOc1ccc(-c2cc(CCCC(=O)NCCC(C)C)no2)cc1` stands 1.35%.
Turning to `O=C(C1CCC(=O)N(C2CCCC2)C1)N1CCN(c2ccccc2Cl)CC1` (stereo not drawn), the “hERG current change (%, negative = inhibition) at 10uM” value is listed as -15.8%.
Under `NC(N)=NC(=S)Nc1ccc(Cl)cc1` stands 11.3%; under `CCn1c(C)c(C)c2cc(C(=O)Nc3cccc(Cl)c3)ccc21`, 11.3%; under `Cc1cc2nc(N3C(=O)CNC3=S)sc2cc1C`, 17.2%.
With `O=C(CSc1nnc(CNC(=O)c2ccc(F)cc2)o1)Nc1ccc2c(c1)OCO2`, the “hERG current change (%, negative = inhibition) at 10uM” value is 12.3%.
Turning to `CCOCCCNC(=O)c1cc2c(=O)n3ccccc3nc2s1`, the “hERG current change (%, negative = inhibition) at 10uM” value is listed as -7.05%.
In the case of `COc1cccc(CNC(=O)c2ccc(CS(=O)c3ccccc3)o2)c1` (stereo not drawn), the “hERG current change (%, negative = inhibition) at 10uM” value stood at 3.35%.
With `COc1cc(CNCCc2ccccc2F)ccc1OCc1ccc(Cl)nc1.Cl`, the “hERG current change (%, negative = inhibition) at 10uM” value was -49.5%.
Consider `COc1ccc(CN2CCNC(=O)C2CC(=O)N(Cc2nccn2C)C(C)C)c(OC)c1` (stereo not drawn), for which the “hERG current change (%, negative = inhibition) at 10uM” value is on record as -3.92%.
In the case of `CCn1c(COc2ccccc2)nnc1SCC(=O)Nc1ccc(N2CCOCC2)cc1`, the “hERG current change (%, negative = inhibition) at 10uM” value came to 10.9%.

Source of the values: PMC4336329 (PLoS ONE, 2015).
